What is called inhibition is the relative decrease from the control value, in per cent.

Structures are written as SMILES. Among all 340,000 compounds or so, about 6,900 (2%) were called active. Rule as the data show it: active = inhibition above about 30%; inactive = below that, where a call was filed. The list shows a part of the results, in another mix than the full data. Where no call is shown, the source filed none.

Data on 95 compounds can be found in PubChem BioAssay AID485344 (National Center for Advancing Translational Sciences (NCATS), 2010).

Sequence of UniProt P14416 (P14416 whole entry, looked up): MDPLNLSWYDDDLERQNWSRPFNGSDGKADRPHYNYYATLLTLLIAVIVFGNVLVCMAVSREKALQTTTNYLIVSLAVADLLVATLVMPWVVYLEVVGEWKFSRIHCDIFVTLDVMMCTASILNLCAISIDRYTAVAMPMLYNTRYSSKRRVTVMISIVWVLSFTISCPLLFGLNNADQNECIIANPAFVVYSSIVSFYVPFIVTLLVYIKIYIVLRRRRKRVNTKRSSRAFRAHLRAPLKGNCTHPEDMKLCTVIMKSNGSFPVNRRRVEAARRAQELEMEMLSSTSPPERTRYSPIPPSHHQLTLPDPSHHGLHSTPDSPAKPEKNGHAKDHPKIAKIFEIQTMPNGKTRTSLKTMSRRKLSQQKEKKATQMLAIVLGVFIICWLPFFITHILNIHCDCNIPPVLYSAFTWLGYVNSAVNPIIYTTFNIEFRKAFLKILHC

This assay deals with D(2) dopamine receptor (Homo sapiens) (UniProt P14416). Description: HTS Assay for Allosteric Antagonists of the Human D2 Dopamine Receptor: Primary Screen for Antagonists. Also: 0% is about no effect. The following applies: HEK293 TREx D2 cells, calcium flux, dopamine EC80; at 10 µM; stronger effect = higher value. Summed up:
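In this primary screen, negative modulation is detected by tracking calcium flux after an EC80 dopamine challenge in inducible HEK293 T-REx D2 cells preexposed to test compound for 180 s.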
In general terms: Calcium flux is commonly read through the fluorescence of an indicator in the cells.
As for `COc1ccccc1N1CCN(S(=O)(=O)c2ccc(F)c(C(=O)Nc3ccc(C)c(F)c3)c2)CC1`, the inhibition came out at 22.5%.
Under `COc1ccc(OCC(=O)NCCCN2CCOCC2)cc1` stands active: 31.7%; under `COc1ccc(-c2ccnc3c(-c4ccc(F)cc4)c(C)nn23)cc1OC`, 3.95%; under `Cc1ccc(NC(=O)C2CCCN2S(=O)(=O)c2cccc3cccnc23)cc1` (stereo not given), -4.63%.
The same measure for `CC1CN(C(=O)N2CCC(C(=O)NC3CCCCCC3)CC2)c2cc(Cl)ccc2O1` (stereo not given): 13.7%; for `Cc1cc(C)n2nc(CNS(=O)(=O)c3ccc(Cl)cc3)nc2n1`: -0.459%.
The same measure for `O=c1[nH]c(SCc2ccc(F)cc2)nc2c1CCCC2`: 6.35%.
With `O=C(Cn1cc(SCc2cccc(Cl)c2)c2ccccc21)N1CCOCC1`, the inhibition is 7.39%.
On to `CCc1ccccc1-n1c(-c2ccncc2)n[nH]c1=S`, for which the inhibition is active: 69.6%.
Under `COc1cc(C(=O)NC2CC(=O)N(c3cccc(F)c3)C2)cc(OC)c1OC` (stereo not given) stands -19.6%; under `CCOc1ccc(CNC(=O)c2cc3c(=O)n(C)c4ccccc4c3s2)cc1`, -7.66%; under `CCN(CC)CCCNC(=O)c1cc(-c2ccc(OC)c(OC)c2)on1`, 2.77%.
As to `Cc1ccc(NC(=O)Cn2c(=O)n(Cc3ccco3)c(=O)c3ccccc32)cc1`, the inhibition was -12.8%.
For the compound `CN(C)S(=O)(=O)c1cccc(NC(=O)CNCC2CCCCC2)c1`, the inhibition is active: 55.4%.
The same measure for `Cc1ccc(NC(=O)CCCn2c(=O)c3cccn3c3cccnc32)c(Cl)c1`: -3.52%; for `CN(C)CCCNc1oc(/C=C/c2ccc(F)cc2)nc1C#N`: 0.317%.
Under `O=c1oc2c3c(ccc2c2ccccc12)OCN(Cc1cccc(Cl)c1)C3` stands -4.18%.
The same measure for `CCOc1ccccc1N(C)C(=O)C1CCCN(c2ncnc3onc(-c4ccc(F)cc4)c23)C1` (stereo not given): -7.45%; for `O=C(CN1CCN(Cc2ccc(Cl)cc2)C1=O)NCc1ccc(F)cc1`: 1.9%.
Regarding `Cc1cc(C)c(NC(=O)CSc2nccn2Cc2ccco2)c(C)c1`, the inhibition was -10.3%.
The same measure for `CCn1cc(C(=O)NCCc2ccccc2)c(=O)c2cc(S(=O)(=O)N(C)C3CCCCC3)ccc21`: -3.5%; for `CC(=O)c1[nH]c(C)c(C(=O)NCCc2ccc(C)cc2)c1C`: 12.1%.
Under `Cc1ccc(C2=Nc3ccccc3N(CC(=O)Nc3cccc(F)c3)C(=O)C2)cc1C` stands -4.77%; under `COc1ccc(-c2noc(-c3ccc(NCc4ccccc4OC)c([N+](=O)[O-])c3)n2)cc1`, 11.5%; under `CC(=O)Nc1cccc(C(=O)NCc2ccc3c(c2)CCN3C(C)=O)c1`, -6.57%.
Under `Cc1ccc(CSc2cn(CC(=O)N3CCCCC3)c3ccccc23)cc1` stands 18.8%.
On to `CCc1ccc(CN(C(=O)c2cc3ccccc3oc2=O)C2CCS(=O)(=O)C2)cc1` (stereo not given), for which the inhibition is -13.9%.
The same measure for `Cc1ccc2nc(N(Cc3cccnc3)C(=O)C3COc4ccccc4O3)sc2c1` (stereo not given): -28%; for `COc1ccc(Cl)cc1NC(=O)CCC(=O)c1ccc(C)cc1`: 4.89%; for `CC(=O)c1ccc(NC(=O)c2ncn(-c3ccccc3)n2)cc1`: -4%.
Under `CCCCNC(=O)CCCn1c(=O)c2ccccc2n(Cc2ccccc2C)c1=O` stands 10%.
Under `COc1ccc(CNC(=O)COCc2cc(-c3cccs3)on2)cc1OC` stands -1.52%; under `CCc1c(C)sc2c1CCN(Cc1ccc(F)cc1)C2c1ccccc1` (stereo not given), -7.23%; under `CCN(CC)CCNC(=O)Cn1ncc2c([nH]c3ccccc32)c1=O`, 3.95%.
With `CC(OC(=O)/C=C/c1ccccc1)C(=O)N1CCc2ccccc21` (stereo not given), the inhibition was active: 30.4%.
Turning to `CCCCN(CC)CCCNC(=O)c1cc2c(-c3ccc(OC)c(OC)c3)nn(C)c2s1`, the inhibition came to 0.653%.
Consider `CCOc1ccc(-c2cnc(NCc3ccc(OC)cc3OC)n2C)cc1`, for which the inhibition is -24.9%.
The same measure for `O=C(NCc1ccc(F)cc1)c1ccc(NC(=O)N2CC3CCCN3c3ccccc32)cc1` (stereo not given): -2.22%; for `COCCNC(=O)C1CCCN(S(=O)(=O)c2ccc3c(ccn3C)c2)C1` (stereo not given): -7.58%.
Regarding `Cn1nc(C(=O)N2CCN(c3ccccc3F)CC2)c2c1-c1ccccc1SC2`, the inhibition was determined as 17.7%.
The same measure for `O=C1c2oc3ccc(F)cc3c(=O)c2C(c2cccc([N+](=O)[O-])c2)N1CCCN1CCOCC1` (stereo not given): 17.7%; for `COc1ccc(NC(=O)CN(Cc2ccccc2)S(=O)(=O)c2ccc3nc(C)sc3c2)cc1`: 0.666%.
In the case of `COc1cc(CN(C(=O)COc2ccc(C)c(C)c2)c2ccccn2)cc(OC)c1OC`, the inhibition is 0.726%.
The same measure for `CCCN(CCC)CCNC(=O)c1cc2c(-c3ccccc3F)nn(C)c2s1`: active: 41.5%.
The same measure for `O=c1c2cc(N3CCOCC3)ccc2[nH]c(=S)n1CCCN1CCN(c2ccccc2F)CC1`: active: 83.6%; for `CC1(C)CCc2cc(CN3CCN(c4ccccn4)CC3)ccc2O1`: active: 85.2%; for `COc1cc(NC(=O)c2cnn(-c3cccc(F)c3)c2C2CCNCC2)cc(OC)c1OC`: 4.76%.
As to `CCc1nnc(NC(=O)CSCc2cc(=O)c3ccc(C)cc3[nH]2)s1`, the inhibition was -10.8%.
The same measure for `COc1ccc(OC)c(S(=O)(=O)N2CCN(CC(O)COc3ccccc3)CC2)c1` (stereo not given): active: 47.9%; for `Cc1cc(O)c(C(c2ccccc2Cl)N2CCN(c3ccccc3)CC2)c(=O)n1Cc1ccco1` (stereo not given): -14.6%; for `Cc1ccc(C)c(NC(=O)CCCn2nc(C)c3sc4ccccc4c3c2=O)c1`: -2.81%.
As for `Cc1ccc2c(c1)c1c(c(=O)n(Cc3ccccc3)c(=O)n1CC(=O)Nc1ccccc1C)n2C`, the inhibition came to 4.32%.
As for `Cc1ccc(NC(=O)Cn2c(-c3ccc4c(c3)OCO4)cn(-c3ccccc3)c2=O)cc1`, the inhibition was 3.04%.
Regarding `COc1ccc(-c2c3c(=O)n(C)c(=O)n(C)c3c3c(-c4ccc(C)cc4)nc4ccccc4n23)cc1`, the inhibition is -3.36%.
Consider `CCN1CCC(N(Cc2cccc(OC)c2)C(=O)Nc2ccc(C)cc2Cl)CC1`, for which the inhibition was -10.9%.
Regarding `Cc1ccc(CSc2nc(=O)c3c(n2C)NC(=O)CC3c2ccc(OC(C)C)cc2)cc1` (stereo not given), the inhibition was found to be 10.3%.
Under `CCC(C(=O)Nc1cccc(C#N)c1)n1c(=O)c(-c2ccccc2NC(C)=O)nc2ccccc21` (stereo not given) stands 7.58%; under `CCCCCNC(=O)C(=O)NCC(c1ccc2c(c1)OCO2)N1CCOCC1` (stereo not given), -12.2%; under `Cc1ccc(S(=O)(=O)Nc2cc3c(cc2N2CCOCC2)n(C)c(=O)n3C)c(C)c1`, -9.91%.
In the case of `O=C(CSc1oc(-c2ccco2)nc1S(=O)(=O)c1ccc(Cl)cc1)c1ccc(Cl)cc1`, the inhibition worked out at 10.6%.
For the compound `COc1ccc(CNC(=O)CC2N=C3c4ccccc4N=C(SCC(=O)Nc4ccc(N(C)C)cc4)N3C2=O)cc1` (stereo not given), the inhibition is -2.42%.
As for `Cc1cc(Nc2cccc(O)c2)c2cccc(Br)c2n1`, the inhibition amounted to 8.02%.
The same measure for `Cc1sc2ncn(CC(=O)Nc3ccc(C(F)(F)F)cc3)c(=O)c2c1S(=O)(=O)N1CCN(C)CC1`: 1.59%.
Under `Cc1cccc(NC(=O)CSc2nnc3c4ccccc4n(C)c3n2)c1` stands -4.52%; under `CCc1ccc(S(=O)(=O)c2cn(CC(=O)Nc3cccc(C)c3)c3ccc(Cl)cc3c2=O)cc1`, 8.69%.
Under `COC(=O)c1ccccc1NC(=O)N(Cc1ccc(C)cc1)Cc1cccn1-c1nnc(N2CCCC2=O)s1` stands 6.32%; under `COc1ccc(OC)c(-c2cc(C(=O)Nc3cc(C)on3)no2)c1`, active: 38.2%; under `CCOC(=O)c1[nH]c(C)c(CCC(=O)NCc2ccc(OC(C)C)cc2)c1C`, 10.8%.
In the case of `Cc1ccc(CNS(=O)(=O)c2c(C(=O)N3CCC(C)CC3)c(C)n(C)c2C)cc1`, the inhibition is 4.18%.
Turning to `COc1ccc(C)cc1NC(=O)C1CCN(S(=O)(=O)c2cccc3nonc23)CC1`, the inhibition is -13%.
As for `COc1ccc(OC)c(NC(=O)c2nc(SCc3ccc(F)cc3)ncc2Cl)c1`, the inhibition is -26.8%.
The same measure for `O=C(NCCc1csc(-c2ccc(F)cc2)n1)C(=O)Nc1ccc(Cl)cc1`: -10.3%.
The same measure for `O=C(/C=C/c1cn(CC(O)CN2CCc3ccccc32)c2ccccc12)c1ccc(Br)cc1` (stereo not given): -0.82%; for `CCC(=O)N1c2ccc(S(=O)(=O)NCCc3ccccc3)cc2CC1C` (stereo not given): 1.89%.
For the compound `CC(C)NC(=O)COc1coc(CN2CCN(C(=O)c3ccco3)CC2)cc1=O`, the inhibition is active: 49.7%.
The same measure for `Cc1cc(C)cc(N2C(=O)CS(=O)(=O)C23C(=O)N(Cc2ccccc2)c2ccccc23)c1` (stereo not given): 10.4%; for `Cc1cc(OCC(=O)Nc2ncn[nH]2)c(C)c(C)c1Br`: 6.49%; for `COc1nnc(-c2ccc(N3CCCCC3)c(NC(=O)c3ccc(Cl)cc3)c2)c2ccccc12`: -2.7%.
For `COc1ccc(-c2cc(C(F)(F)F)nc(SCC(=O)Nc3ccc(C(C)=O)cc3)n2)cc1`, the inhibition is -12.4%.
Regarding `CCOC(=O)C1CCN(c2ncnc3c2c(-c2ccccc2)cn3-c2ccc(C)c(Cl)c2)CC1`, the inhibition worked out at 2.05%.
Under `Cc1nn(-c2ccc(C(=O)N3CCN(S(=O)(=O)c4ccccc4C(F)(F)F)CC3)cc2)c(C)c1Cl` stands active: 56.3%.
Under `CCc1cc(=O)[nH]c(SCc2nc(-c3ccccc3C)no2)n1` stands -0.699%; under `COc1cccc2sc(N(Cc3cccnc3)C(=O)c3ccc(S(=O)(=O)N(C)C)cc3)nc12`, 5.95%; under `CCOC(=O)C1CCCN(C(=O)C2CCN(S(=O)(=O)c3c(C)noc3/C=C/c3ccc(C)cc3)CC2)C1` (stereo not given), 2.49%.
Consider `COc1ccccc1CNC(=O)c1cc2cc(S(=O)(=O)N3CCCCC3)ccc2n1C`, for which the inhibition was determined as 4.37%.
The same measure for `O=C(O)c1ccccc1NC(=O)N1c2ccccc2Sc2ccccc21`: 5.32%.
Under `CC1CCCN(Cc2c(O)ccc3c(=O)c(-c4ccc(Cl)cc4)c(C(F)(F)F)oc23)C1` (stereo not given) stands -19.4%.
Under `COc1cc2c(cc1OC)C(c1cc(OC)c(O)c(OC)c1)CC(=O)N2` (stereo not given) stands 1.76%; under `Cc1nc2c(C(=O)NCCC(C)C)cnn2c(C)c1Cc1c(F)cccc1Cl`, 3.8%.
As to `COc1ccc2c(c1)c1c(c(=O)n(-c3ccc(C)cc3)c(=O)n1CC(=O)Nc1cc(C)ccc1C)n2C`, the inhibition came to 4.25%.
`COc1ccc2ccccc2c1CN1CCN(C)CC1`: the inhibition was active: 39.8%.
With `Cc1cccc(C(=O)NC(=O)Nc2ccc(-n3nc(C(F)(F)F)cc3C(F)(F)F)cc2)c1`, the inhibition was -2.49%.
As to `CC(=O)N1c2c(cc(Br)cc2S(=O)(=O)Nc2ccccc2C)CC1C` (stereo not given), the inhibition turned out to be 4.62%.
For `CCOc1cc(Br)c(C2C(C(=O)OC)=C(C)NC3=C2C(=O)c2ccccc23)cc1OCC` (stereo not given), the inhibition came to 2%.
As to `COc1cccc(Cn2cnc3c2c(=O)n(C)c(=O)n3C)c1`, the inhibition was -2.93%.
